The results in this text go back to the RNAGym collection of RNA variant scans (doi:10.7554/elife.90254).

Read counts are not given, so values of variants with three or more changes are uncertain.

The chains are these.
B1: LINE1-full (parent)
chain: UACGUAGGUGGUUUUCCCCUGAUAGUGCUAAGGGGGCCUGGAAGUUUGGACUGGGCAGAGCUCAACACAGCGUGGCAAAGUGGCUGUGGCUAGACUGCCUCUCUGGAUUCCUCGUCACUCAGCAGGGCAUCUCUGAGAGAAAUGCC

In this data set the parent is B1. As to the kind of experiment: self-cleavage, relative activity (ratio to wild type); higher = more cleavage; in vitro, sequencing; the parent is a self-cleaving ribozyme.
For the variant UACGUAGGUGGUUUUCCCCUGAUAGUGCUAAGGGGGCCUGGAAGUUUGGACUGGGCGGAGCUCAGCACAGCGUGGCAAAGUGGCUGUGGCUAGACUGCCUCUCUGGAUUCCUCGUCACUCAGCAGGGCGUCUCUGAGAGAAGUGCC [A57G A65G A129G A142G], the self-cleavage stood at 0.

As to UACGUAGGUGGUUUUCCCCUGAUAGUGCUAAGGGGGCCCGGAAGUUUGGAUUGGGCAGAGCUCAACACAGCGUGGCAAAGUGGCUGUGGCUAGACUGCCUCUCUGGAUUCCUCGUCACUCAGCAGGGCAUCCCUGAGAGAAAUGCC [U39C C51U U132C], the self-cleavage turned out to be 0.84.

In the case of UACGUAGGUGGUUUUCCCCUGAUAGUGCUAAGGGGGCCUGGAAGUUUGGACUGGGCAGUGCUCAACACAGCGUGGCAAAGUGGCUGUGGCUAGACUGCCUCUCUGGAUUCCUCGUUACUCAGCAGGGCAUCCCUGAGAGAAAUGCA [A59U C116U U132C C146A], the self-cleavage was 1.15.

On to UACGUAGGUGGCUUACCCCUGAUAGUGCUAAGGGGGCCUGGAAGUCUGGACUGGGCAGAGCUCAACACAGCGUGGCAAAGUGGCUGUGGCUAGACAGCCUCUCUGGAUUCCUCGUCACUCAGCAGGGCAUCUCUGAGAGAAAAGCC [U12C U15A U46C U96A U143A], for which the self-cleavage worked out at 0.

With UACGCAGGUGGUUUUCCCCUGAUAGUGCUAAGGGGGCCUGGAAGUUUGGACUGGGCAGAGCUCAACACAGCGUGGCAAAGUGGCCGUGGCUAGACUGCCUCUCUGGAUUCCUCGUCACCCAGCAGGGCAUCUCUGAGAGAAAUGCC [U5C U85C U119C], the self-cleavage stood at 0.37.

For the variant UACGUAGGUGGUUUUCCCCUGAUAGUGCUAAGGGGGCCUGGUAGAUUGGACUGGGCAGAGCUCUACACAGCGUGGCAAAGUGGCUGUGGCUAGUCUGCCUCUCUGGAUUCCUCGUCACUCAGCAGGGCAUCUCUGAGAGAAGUGCC [A42U U45A A64U A94U A142G], the self-cleavage was determined as 0.19.

Turning to UACGUAGGUGGUUUUCCCCUGAUAGUGCUAAGGGGGCCUGGAAGUUUGGACUGGGCAGAGCUCAACACAGCGUGGCGAAGUGGCUGUGGCUAGACUGCCUCUCUGGAUUCCUCGUCACCCAGCAGGGCAUCUCUGAGAGAGAUGCC [A77G U119C A141G], the self-cleavage worked out at 1.1.

For UACGUAGGUGGUUUUCCCCUGAUAGUGCUCAGGGGGCCUGGAAGUUUGGACUGGGCAGAGCUCAACACAGCGAGGCAAAGUGGCUGUGGCUAGACUGCCUCUCUGGAUUCCUCGUCACUCGGCAGGGCAUCUCUGAGAGAAAUGCC [A30C U73A A121G], the self-cleavage is 1.84.

Regarding UACGUGGGUGGUUUUCCCCUGAUAGUGCUAAGGGGGCCUGGAAGUUUGGACUGGGCAGAGCUCAACACAGCGCGGCAAGGUGGCUGUGGCUAGACUGCCUCUCUGGAUACCUCGUCACUCAGCAGGGCAUCUCUGAGAGAAAUGCC [A6G U73C A79G U109A], the self-cleavage was found to be 0.4.

Regarding UACGUAGGUGGUUUUCCCCUGAUAGUGCUAAGGGGGCCUGGAAGUUUGGACUGGGCAGAGCUCAACACAGCGUGGCAAAGUGGCUGUGGCUAGACUGCCUCUCAGGAUUCCUCGUCACACAGCCGGGCAUCUCCGAGAGAAAUGCC [U104A U119A A124C U134C], the self-cleavage is 1.31.

As for UACGUAGGUGGUUUUCCCCUGAUAGUGCUAAGGGGGCCUGGAGGUUUGGACCGGGCAGAGCUCAACACAGCGUGGCAAAGUGGCUGUGGCUAGACUGCCUCUCUGGAUUCCUCGUCACUCAGCAGGGCAUCUCUGAGAGGAAUGCC [A43G U52C A140G], the self-cleavage was 0.

On to UACGUAGGUGGUUUUCCCCUGAUAGUGCUAAGGGGGCCUGGAAGUUUGGACUGGGCAGAGCUCGACACAGCGUGGCAAAGUGGCUGUGGCUAGACUGCCUCUCUGGAUUCCUCGUCACUCAUCAGGGCAUCUCUGAGAGAAGUGCC [A64G G122U A142G], for which the self-cleavage amounted to 0.16.

As for UACGUAGGUGGUUUUCCCCUGAUAGUGCUAAGGGGGCCUGGAGGUUUGGACUGGGCAGAGCUCAGCACAGCGUAGCAAAGUGGCUGUGGCUAGACUGCCUCUCUGGAUUCCUCGUCACUCAGCAGGGCAUCUCUGAGAGAAGUGCC [A43G A65G G74A A142G], the self-cleavage was determined as 0.1.

As for UACGCAGGUGGUUUCCCCCUGAUAGUGCUAAGGGGGCCUGGAAGUUUGGACUGGGCAGAGCUUAACACAGCGUGGCAAAGUGGCUGUGGCUAGACUGCCUCUCUGGAUUCCUCGUCACUCAGCAGGGCAUCUCUGAGAGAAAUGCC [U5C U15C C63U], the self-cleavage was 0.16.

As to UACGUAGGUGGUUUUCCCCUGAUAGUGCUAAGGGGGCCUGGUAGUUUGGACUGGGCAGAGCUCAACACAGCGUGGCAAAGCGGCAGUGGCUAGACUGCCUCUCUGGAUUCCUCGUCACUCAGCAGGGCAUCUCUGAGAGAAAUGCC [A42U U81C U85A], the self-cleavage was found to be 0.07.

With UACGCAGGUGGUUUUCCCCUGAUAGUGCUAAGGGGGCCCGGAAGUAUGGACUGGGCAGAGCUCGACACAGCGUGGCAAAGUGGCUGUGGCUAGACUGCCUCUCUGGAUUCCUCGUCACUCAGCAGGGCAUCUCUGAGAGAAAAGCC [U5C U39C U46A A64G U143A], the self-cleavage amounted to 0.28.

In the case of UGCGUAGGUGGUUUUCCCCUGAUAGUGCUAAGGGGGCCUGGAAGUUUGGACUGGGCAGUGCUCAACACAGCGUGGCAAAGUGGCUGUGGCUAGACUGCCUCUCUGGAUUCCUCGUCACUCAGCAGGGCAUCUCUGAGAGAAACGCC [A2G A59U U143C], the self-cleavage is 0.97.

UACGUAGGUGGUUUUCCCCUGAUAGUGCUAAGGGGGCCUGGAAGUUUGGACUGGGCAGAGCUCAACACAGCGUGGCAAAGUGGCUGUGGCUAGACUGCCUCUCUGGAUUCCUCGCCACUCAGCAGGGCAUCCCUGAGAGAAGUGCC [U115C U132C A142G]: the self-cleavage was found to be 0.63.

In the case of UACGUAGGUGGUUCUCCCCUGAUAGUGCUAAGGGGGCCUGGAAGUUUGGACUGGGCAGAGCUCAACACAGCGUGGCAAAGUGGCUGAGGCUAGACUGCCUCUCUGGAUUCCUCGUCACUCAGCAGGGCAUCUCUGAGGGAAAUGCC [U14C U87A A138G], the self-cleavage came to 0.28.

As for UACGUAGGUGGUUUUCCCCUGAUAGUGCUAAGGGGGCCUGGAAGUUUGGACUGGGCAGAGCUCAACACAGCGUGGCAAAGUGGCUGUGGCUAGACUGUCUCUCUGGAAUCCUCGUCACUCAGCAGGGCAUCUCUGAGAGACAUGCC [C98U U108A A141C], the self-cleavage came to 0.16.
